Data from publication PMC4336329 (PLoS ONE, 2015).
Hit rate of the full screen: of about 310,000 compounds, about 2,200 (0.71%) showed an effect of 50% or more. The effect is printed as a negative number. The list shows a part of the results.

These compounds were tested against human ether-à-go-go-related gene (hERG) potassium channel (human, UniProt Q12809) (assay: primary screen, population patch clamp on CHO cells stably expressing hERG).
Chain of human ether-à-go-go-related gene (hERG) potassium channel (Q12809 whole entry, looked up): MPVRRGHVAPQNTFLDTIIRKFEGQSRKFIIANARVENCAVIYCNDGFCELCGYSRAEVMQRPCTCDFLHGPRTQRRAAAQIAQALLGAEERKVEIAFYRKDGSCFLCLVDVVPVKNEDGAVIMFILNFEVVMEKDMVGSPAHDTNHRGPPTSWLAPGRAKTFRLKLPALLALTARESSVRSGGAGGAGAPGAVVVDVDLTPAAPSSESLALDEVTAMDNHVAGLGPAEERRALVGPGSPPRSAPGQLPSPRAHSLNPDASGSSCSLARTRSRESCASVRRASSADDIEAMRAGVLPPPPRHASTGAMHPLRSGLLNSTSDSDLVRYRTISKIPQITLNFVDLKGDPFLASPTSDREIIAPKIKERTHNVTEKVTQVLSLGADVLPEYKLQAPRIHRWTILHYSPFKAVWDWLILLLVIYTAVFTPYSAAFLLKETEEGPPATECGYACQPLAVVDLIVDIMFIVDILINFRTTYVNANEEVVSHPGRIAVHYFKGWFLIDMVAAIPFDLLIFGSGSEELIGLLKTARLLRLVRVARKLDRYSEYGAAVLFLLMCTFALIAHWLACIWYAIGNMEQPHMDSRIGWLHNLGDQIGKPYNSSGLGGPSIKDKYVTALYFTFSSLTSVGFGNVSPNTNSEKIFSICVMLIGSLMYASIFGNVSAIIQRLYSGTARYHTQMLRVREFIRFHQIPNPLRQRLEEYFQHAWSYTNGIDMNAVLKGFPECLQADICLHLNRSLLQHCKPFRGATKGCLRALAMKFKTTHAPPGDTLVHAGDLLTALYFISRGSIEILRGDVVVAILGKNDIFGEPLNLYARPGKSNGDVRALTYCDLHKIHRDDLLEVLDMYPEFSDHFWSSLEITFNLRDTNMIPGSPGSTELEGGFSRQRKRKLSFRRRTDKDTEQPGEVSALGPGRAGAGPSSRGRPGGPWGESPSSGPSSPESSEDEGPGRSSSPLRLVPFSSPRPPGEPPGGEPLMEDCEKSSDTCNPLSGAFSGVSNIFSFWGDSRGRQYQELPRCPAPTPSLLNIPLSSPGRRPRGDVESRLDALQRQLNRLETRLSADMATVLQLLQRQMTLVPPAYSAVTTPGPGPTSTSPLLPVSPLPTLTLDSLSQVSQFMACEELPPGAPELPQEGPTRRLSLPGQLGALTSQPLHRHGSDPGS

SMILES	hERG current change (%, negative = inhibition) at 1uM
Cc1ccsc1/C=N/NC(=O)CNC(=O)c1ccc(S(=O)(=O)N2CCOCC2)cc1	5.79%
O=S(=O)(c1ccc(Br)cc1)N1CCCC1c1nc2ccccc2s1 (stereo not drawn)	1.59%
N#C/C(=C(/O)COC(=O)CCC1CCCCC1)c1nc2ccccc2[nH]1	10.2%
CCCc1cc(=O)oc2c(C)c(OCc3nn[nH]n3)ccc12	11.2%
O=C1C=C(c2ccc(Cl)c(C(F)(F)F)c2)C[C@@H](c2ccc(Cl)cc2)C1	7.33%
CSc1ncc(C(=O)Nc2ccccc2F)c(-c2ccccc2)n1	10.2%
Cc1ccccc1CS(=O)(=O)Cc1ccc(C(=O)NCC2CCCO2)o1 (stereo not drawn)	0.816%
Cc1cc(CNC(=O)C2(C(F)(F)F)C/C(=C\Cc3ccccc3)CCCO2)nn1C (stereo not drawn)	21.2%
Cc1ccc(C(=O)NC2CCCCCCC2)c(Cl)c1	12.1%
O=C1CN(C(=O)COC(=O)C2=COCCO2)c2ccccc2N1	0.237%
COc1ccc(NC(=O)CN(c2ccc(C)cc2)S(=O)(=O)c2c(C)nn(C)c2C)cc1	8.63%
Cc1cccn2c1nc(=S)n2C(=O)c1ccco1	11.6%
NS(=O)(=O)c1ccc(NC(=O)c2cc(-c3ccccc3O)n[nH]2)cc1	10.6%
CC(=O)NCC(=O)OCC(=O)c1ccc(C)c(C)c1	4.73%
CCOc1ccc(-n2c(SCc3ccc([N+](=O)[O-])cc3)nnc2-c2ccc(OC)cc2)cc1	10.7%
O=C(NCCN1CCOCC1)c1cc2cc(Br)ccc2oc1=O	0.63%
CCC(C(=O)O)n1nc(-c2ccccc2)c2cc(Cl)ccc21 (stereo not drawn)	3.89%
COc1ccc(-c2nc(C=O)cs2)cc1	2.62%
CCOc1ncccc1C(=O)OCC(=O)Nc1cccc(C(C)=O)c1	-9.55%
CC1(c2ccc(Cl)cc2)NC(=S)N2C1NC(=S)N2c1ccccc1 (stereo not drawn)	3.14%
Cc1ccc(-c2nnn(CCC(=O)Nc3ccc4c(c3)OCO4)n2)cc1	1.6%
COc1ccc(Nc2nc(C)nc3sc4c(c23)CCC4)cc1O	7.97%
CCCCCc1ccc(-c2cn(CN3C(=O)c4ccccc4C3=O)nn2)cc1	-1.84%

SMILES	hERG current change (%, negative = inhibition) at 1uM
Cc1[nH]c2ccc(C(=O)NCCCN(C)C3CCCCC3)cc2c1C	-0.909%
O=C(Nc1ccc2c(c1)OC1(CCCC1)O2)C1CC1	13.4%
COc1ccccc1CC(=O)Nc1ccc2[nH]ncc2c1	-0.0473%
NC(=O)c1cccc(CC(=O)c2ccccc2)c1	12.4%
NC(=O)CSc1nnc(CSc2ncccn2)n1-c1ccccc1	5.45%
CCOC(=O)N1CCN(S(=O)(=O)c2ccc(C(=O)Nc3sc4c(c3C#N)CC(C)(C)NC4(C)C)cc2)CC1	12.1%
Cc1ccc(C)c(N(C(=O)CNC(=O)c2ccco2)C(C(=O)NC2CCCC2)c2ccncc2)c1 (stereo not drawn)	13.4%
Cc1ccccc1OC(C)C(=O)NC1CCCC1 (stereo not drawn)	6.92%
COC(=O)C1=C(C)N(Cc2ccco2)C(=O)N[C@@H]1c1ccccc1	7.03%
CSc1cccc(NC(=O)c2cc(S(=O)(=O)N3CCCC3)cn2C)c1	9.64%
O=C(CN1C(=O)CSc2ccc(S(=O)(=O)N3CCOCC3)cc21)NCc1ccc(Cl)cc1	1.17%
CN(CCC#N)C(=O)CSc1nc2scc(-c3ccccc3)c2c(=O)[nH]1	0.162%
Cc1cc(NC(=O)c2c(C)noc2C)no1	14.5%
COC(=O)c1c(NC(C)=O)sc(C(=O)N2CCOCC2)c1C	15.4%
COc1cccc(C(=O)NC(=S)Nc2ccccc2N2CCCCC2)c1	19.2%
COc1ccc(CCNC(=S)Nc2cccc3ccccc23)cc1	10.6%
Cn1c(=O)c2c(SCC(=O)NCc3ccco3)nc(CC(C)(C)C)nc2n(C)c1=O	-25.3%
CCOC(=O)CC(=O)CSc1nc(N)c(C#N)c(-c2ccc(Cl)cc2)c1C#N	11.8%
O=C(CSc1nncn1-c1ccccc1)Nc1c(F)cccc1F	3.79%
CSc1ncnc2sc(C)c(C)c12	13.4%
O=C(O)c1[nH]c2ccccc2c1C(c1cc(Br)ccc1O)c1c(C(=O)O)[nH]c2ccccc12	15.8%
Cc1ccc(C)c(S(=O)(=O)Nc2ccc(C(=O)NCC(c3ccco3)N(C)C)cc2)c1 (stereo not drawn)	1.68%
Cc1ccc(-n2c(=O)c3sccc3n(CC(=O)NCc3ccco3)c2=O)cc1F	16.4%

SMILES	hERG current change (%, negative = inhibition) at 1uM
Cc1ccc(NC(=O)CCNS(=O)(=O)c2cc(Br)cnc2N)c(Cl)c1	1.87%
S=C(NCCCCc1ccccc1)NCc1ccccc1	16%
O=c1[nH]c(N/N=C\c2ccc(F)cc2)nc2ccccc12	3.46%
O=C(CC(=O)N/N=C\c1cccc(Cl)c1Cl)NCc1ccccc1	14.7%
O=C(O)CC(C(=O)Nc1cccc(C(F)(F)F)c1)C1CCCO1 (stereo not drawn)	6.05%
Cc1ccccc1CNC(=O)C1CCC(=O)N(Cc2cccc(F)c2)C1 (stereo not drawn)	18.6%
Cc1[nH]oc(=O)c1N=Nc1ccccc1	5.01%
Cc1cc(C)n(-c2nncn2NC(=O)c2ccc(Cl)cc2O)n1	11%
COCCn1cnnc1SCC(=O)Nc1ccc(N2CCCCC2)cc1	0.874%
Cc1ccc(CSc2nnc(-c3ccco3)n2N)cc1	11.2%
CCOc1ccc(S(=O)(=O)Nc2cccc(C(=O)N3CCN(C(C)=O)CC3)c2)cc1	-15.3%
NC(=O)c1nsc(C(=O)N(CC(=O)NC2CCCCC2)c2cccc(F)c2)c1N	9.26%
CC(C)COn1c(=S)[nH]c2ccccc2c1=O	-3.51%
Cc1ccc(C)n1-c1ccc(C(=O)O)cc1	21.3%
COc1cccc(OCCOc2ccc(/C=C3\C(=N)N4N=C(S(C)(=O)=O)SC4=NC3=O)cc2OC)c1	17.2%
O=C1CC(=O)N(c2ccc3c(c2)OCO3)C(=O)N1	6.07%
CCCS(=O)(=O)N1CCCC(C(=O)NCCN2CCOCC2)C1 (stereo not drawn)	5.53%
O=[N+]([O-])C(/C=C(\Cl)[N+](=O)[O-])=C(N1CCCCC1)N1CCCCC1	-0.394%
CCc1ccc(S(=O)(=O)N2CCN(C(=O)C3CCN(C(C)=O)CC3)CC2)cc1	10.2%
Cc1ccc(NC(=O)c2cccs2)cc1NC(=O)c1ccc(F)cc1	3.68%
COCC(=O)N(Cc1cc2cc(OC)ccc2[nH]c1=O)c1ccccc1OC	0.229%
COC(=O)CCCC(=O)N1CCOCCN(C(=O)CCCC(=O)OC)CCOCC1	5.72%
CCn1ncc([N+](=O)[O-])c1C(=O)Nc1cc(C)on1	5.38%

SMILES	hERG current change (%, negative = inhibition) at 1uM
CCN(CC)CCN(C(=O)C1=COCCO1)c1nc2c(OC)ccc(OC)c2s1.Cl	-84.9%
CCC(C(=O)NCCc1ccco1)n1nc(C)c2c(C)n(-c3ccccc3)nc2c1=O (stereo not drawn)	9.12%
O=C(Nn1cnnc1)c1cc(Br)ccc1Cl	12.2%
CCCCN(C(=O)c1cc(-c2ccco2)nc2ccccc12)c1c(N)n(CCC)c(=O)[nH]c1=O	3.96%
NC(=O)c1ccccc1NC(=O)Nc1ccccc1Cl	15.5%
OC(COc1ccc2cc(Br)ccc2c1)CN1CCCC1 (stereo not drawn)	-12.9%
N#Cc1c(N)n(CCOC(=O)c2cccc(Br)c2)c2nc3ccccc3nc12	7.94%
Cc1cccc(OCC(=O)Nc2nnc(-c3ccco3)s2)c1	-1.59%
O=C(NCCCc1ccccc1)c1ccc(Br)o1	-5.61%
CNC(=S)Nc1ccc2nc(C)oc2c1	6.89%
CC(=O)Nc1nnc(-c2c(-c3c(Cl)cccc3Cl)noc2C)o1	-0.125%
Cc1ccc2cc(C=O)c(N(C)C)nc2c1	11.9%
CCN1CCN(S(=O)(=O)c2cccc([N+](=O)[O-])c2)CC1	17.2%
[O-]/C(=C(\C(=S)NCc1ccccc1)[n+]1ccccc1)c1ccc(Cl)s1	0.527%
Cc1nc(-c2ccc(Cl)cc2)sc1C1(C)CC(c2ccc(OC(F)(F)F)cc2)=NO1 (stereo not drawn)	15.6%
Cn1c(Cn2nnc3ccccc32)nnc1SCC(=O)N1CCc2ccccc21	2.05%
Cc1ccn2c(CNC(C)c3cn(C)nc3C)c(C(=O)N3CCCCCC3)nc2c1 (stereo not drawn)	16.9%
CC(CNC(=O)c1ccc2c(c1)OCO2)c1ccc([N+](=O)[O-])cc1 (stereo not drawn)	12.7%
CCNc1nc(=S)nc(NCc2ccccc2)[nH]1	5.53%
CCc1nnc2sc(-c3ccc(NC(=O)c4ccco4)cc3)nn12	11.5%
O=c1[nH]c(Cl)ccc1CN1CCOCC1	10.1%
